The text below walks through data of the supplement of paper PMC10338343.

± gives the standard deviation. The entries are a selection whose mix differs from that of the whole data set.

The test system of the first assay is MIWI (PIWIL1) piRISC loaded with L1MC piRNA (30 nt). In words: pre-steady-state target cleavage rate (min^-1); MIWI and MILI are mouse PIWI proteins and EfPiwi is from a freshwater sponge; tags in brackets are library labels; higher = faster piRNA-guided slicing of the target. As to conditions: guide: L1MC piRNA 5'p-UAACUAAAUACUAUGCAAGCUGUAGGUCCU; auxiliary factor: 500 nM mouse GTSF1. The gist of the method: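 Cleave-'n-Seq used a transcribed, DNA-blocked target RNA library at 0.1 nM and active affinity-purified piRISC with one synthetic guide at 1 nM, with or without 500 nM GTSF1 partner protein, in HEPES–potassium acetate buffer at 33 °C for 0–8 or 0–960 min. Uncleaved targets were sequenced and normalised to depth and to weakly complementary targets, and three trials were pooled with k3 capped at 0.0001 min^-1. The pre-steady-state cleavage rate was estimated by a burst-and-steady-state fit.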
In the case of UCCUGGAUCAGCUUGCAUACUAUAUAGUUA, the “pre-steady-state target cleavage rate” value was 0.0652 ± 0.0081.

As to UCCUCGAUCAGCUUGCAUAGUAUUUACAAA, the “pre-steady-state target cleavage rate” value was 0.4 ± 0.047.

In the case of AGGUCCUACAGCUUGCAUACUAUUUAGUUA, the “pre-steady-state target cleavage rate” value was 0.371 ± 0.019. Regarding UCCUGGAACAGCUUGCUUAGUAAUUAGUUA, the “pre-steady-state target cleavage rate” value came out at 0.485 ± 0.041. Same read-out and setting: next, UCCUCGUACAGCUUGCAUAGAAUUUAGUUA: 0.307 ± 0.021; UGGACCUACAGGUUGCAUAGUAUUUAGAUA: 0.303 ± 0.036. Same read-out and setting: under UCCUGGAUGUCCUUGCAUAGUACUUAGUUA stands 0.0529 ± 0.0085. Same read-out and setting: next, UCCUGGAACAGCUUGCAUAGUAUUUAGUCA: 0.522 ± 0.038; UCCACCAACAGCUUGCAUACUAUUUAGUUA: 0.359 ± 0.02; UCCUGCUAGAGCUUGCAUUGUAUUUAGUUA: 0.62 ± 0.044. Regarding UCCUGGAUCAGCUUGCAAAGUAUAUAGUUA, the “pre-steady-state target cleavage rate” value turned out to be 0.407 ± 0.033. The same measure, in the same setting: next, UCCUGGAACAGCUUGCAUAGAAUUUAGUUA: 0.269 ± 0.03.

Turning to UCCUGGAACAGGUUGCAUUGUAUUUAGUUA, the “pre-steady-state target cleavage rate” value turned out to be 0.544 ± 0.052.

For UGGACCUACAGCUUGCAAAGUAAUUAGUUA, the “pre-steady-state target cleavage rate” value was 0.73 ± 0.048. Still for that read-out and setting: next, AGGACGAACAGCUUGCAUAGUAUUUAGAAA: 0.388 ± 0.054; UCCUGGAUCAGUCUUGCAUAGUAUUUAGUUA: 0.691 ± 0.039.

Still in this assay, the particulars now being: guide: L1MC piRNA 5'p-UAACUAAAUACUAUGCAAGCUGUAGGUCCU; auxiliary factor: none (no GTSF1).
For the sequence UCCACGCUACAGCUUGCAUAGUAUUUAGUUA, the “pre-steady-state target cleavage rate” value is 0.0444 ± 0.0072. UCGACCUAGAGCUAGCAUAGUAUUUAGUUA: the “pre-steady-state target cleavage rate” value stood at 0.0171 ± 0.0037. Same read-out and setting: under UCCUGGAUCAGGUUGCAUAGUAUUAAGUUA stands 0.00417 ± 0.0022; under UGGACCUACAGGUUGCAUAGUAUUUACUUA, 0.0241 ± 0.0041; under UCCUGGAUGCGCUUGCAUAGUAUUUAGUUA, 0.0486 ± 0.01. On the same count and under the same terms, next, UCCUGGAUGUCAUUGCAUAGUAUUUAGUUA: 0.00816 ± 0.0032; UCCUGGAACAGCAUGCUUAGUAUUUAGUUA: 0.0129 ± 0.0038; UGCACCUACAGCUUGCAUACUAUUUAGUUA: 0.0214 ± 0.0031. Same read-out and setting: next, UCCUCCUACAGCUUGCAUAGUUUUUACUUA: 0.0147 ± 0.0039; UCCUGGAACAGCUUGCAAAGUUUUUAGUUA: 0.026 ± 0.0075; UCCUGCUACAGCUUGCAUAGUACUUAGUUA: 0.0372 ± 0.0054.

UCCUGCUACAGGUUGCUUAGUAUUUAGUUA: the “pre-steady-state target cleavage rate” value is 0.0138 ± 0.0036. For UCCUCCUACAGGAUGCAUAGUAUUUAGUUA, the “pre-steady-state target cleavage rate” value is 0.0111 ± 0.0022. Still for that read-out and setting: next, AGGACCUACAGCUCUGCAUAGUAUUUAGUUA: 0.0543 ± 0.014. With UCCUGGAUGAGCUUGCAUUGUAUUUACUUA, the “pre-steady-state target cleavage rate” value worked out at 0.00906 ± 0.0031. The same measure, in the same setting: under UCCUCCUACAGCUUUCAUAGUAUUUAGUUA stands 0.0159 ± 0.0028; under UCCUGGAUCAGGUUGCUUAGUAUUUAGUUA, 0.00489 ± 0.0024. The same measure, in the same setting: under UCCUGCUUCAGCUUGGAUAGUAUUUAGUUA stands 0.049 ± 0.0081; under AGGACCUACAGCUUGGUUAGUAUUUAGUUA, 0.0104 ± 0.0024; under UCGACCUACAGCUAGCAUAGAAUUUAGUUA, 0.00737 ± 0.0036. With AGGACCUACAGCUUGCAUAGUAAAAAGUUA, the “pre-steady-state target cleavage rate” value came out at 0.00574 ± 0.0034. On to UCCUGGAUGAGCUCUGCAUAGUAUUUAGUUA, for which the “pre-steady-state target cleavage rate” value came to 0.00909 ± 0.0027.

For the sequence UCGACCUACAGCUAGCAUAGUUUUUAGUUA, the “pre-steady-state target cleavage rate” value was 0.0167 ± 0.004. As for UCCUCCUACAGCUUGCAUAGUAUAUACUUA, the “pre-steady-state target cleavage rate” value is 0.00579 ± 0.0024. Same read-out and setting: next, UCCUGGAUCAGCUUGCAUACUAUAUAGUUA: 0.00966 ± 0.0032. The same measure, in the same setting: under UCCUCGAUCAGCUUGCAUAGUAUUUACAAA stands 0.00354 ± 0.0027; under AGGUCCUACAGCUUGCAUACUAUUUAGUUA, 0.0281 ± 0.0054. Still for that read-out and setting: next, UCCUGGAACAGCUUGCUUAGUAAUUAGUUA: 0.0141 ± 0.0051; UCCUCGUACAGCUUGCAUAGAAUUUAGUUA: 0.0271 ± 0.0073; UGGACCUACAGGUUGCAUAGUAUUUAGAUA: 0.0236 ± 0.0039. UCCUGGAUGUCCUUGCAUAGUACUUAGUUA: the “pre-steady-state target cleavage rate” value was 0.00795 ± 0.0021. For UCCUGGAACAGCUUGCAUAGUAUUUAGUCA, the “pre-steady-state target cleavage rate” value was 0.0457 ± 0.0097. On to UCCACCAACAGCUUGCAUACUAUUUAGUUA, for which the “pre-steady-state target cleavage rate” value is 0.0316 ± 0.0059. Same read-out and setting: under UCCUGCUAGAGCUUGCAUUGUAUUUAGUUA stands 0.0241 ± 0.0055.

On to UCCUGGAUCAGCUUGCAAAGUAUAUAGUUA, for which the “pre-steady-state target cleavage rate” value stood at 0.0169 ± 0.0052. Turning to UCCUGGAACAGCUUGCAUAGAAUUUAGUUA, the “pre-steady-state target cleavage rate” value is 0.0275 ± 0.0063.

For the sequence UCCUGGAACAGGUUGCAUUGUAUUUAGUUA, the “pre-steady-state target cleavage rate” value was 0.00919 ± 0.0033.

With UGGACCUACAGCUUGCAAAGUAAUUAGUUA, the “pre-steady-state target cleavage rate” value turned out to be 0.0109 ± 0.0039.

In the case of AGGACGAACAGCUUGCAUAGUAUUUAGAAA, the “pre-steady-state target cleavage rate” value was determined as 0.0136 ± 0.0038. UCCUGGAUCAGUCUUGCAUAGUAUUUAGUUA: the “pre-steady-state target cleavage rate” value was determined as 0.0276 ± 0.0062.
